The other results are listed elsewhere or left out. The full chains were built here from the parent and the listed change. Inactive controls read about 0.05.
B1: TEV protease; numbered along this chain (parent)
chain: MGESLFKGPRDYNPISSSICHLTNESDGHTTSLYGIGFGPFIITNKHLFRRNNGTLVVQSLHGVFKVKDTTTLQQHLVDGRDMIIIRMPKDFPPFPQKLKFREPQREERICLVTTNFQTKSMSSMVSDTSCTFPSGDGIFWKHWIQTKDGQCGSPLVSTRDGFIVGIHSASNFTNTNNYFTSVPKNFMELLTNQEAQQWVSGWRLNADSVLWGGHKVFMVKPEEPFQPVKEATQL

Variants of: B1
Experiment: raw area under fraction-flipped curve 0-4 h after induction (AUC4h, not background-subtracted), DNA-recorder readout of cleavage of the substrate (dimensionless); higher = more cleavage of the substrate by the protease variant
Conditions: temperature: 34 °C; time window: 0-4 h after rhamnose induction
Method: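 In vivo DNA recorder in E. coli TOP10(DE3) ΔrhaA at 34 °C. Each TEVp single-site mutant (parent TEVp 0) is paired with a single-site variant of the 7-mer TEVs (canonical ENLYFQ|S). The substrate sits between flexible linkers in a Bxb1-sfGFP-TEVs-SsrA fusion, so cleavage stabilises Bxb1 and speeds flipping of a recombination array, read by NGS. The value is the raw area under the fraction-flipped curve over 0-4 h after rhamnose induction (AUC4h), with ≥20 reads per time point. It is not background-subtracted; inactive controls average about 0.047.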
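Further: Bxb1 expression induced with 0.2% (w/v) L-rhamnose at OD600 near 0.5, cultures sampled hourly, flipped fraction per protease–substrate barcode pair counted by paired-end Illumina sequencing.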

Variant | area with substrate ENLAFQS | area with substrate ENLGFQS | area with substrate ENLIFQS | area with substrate ENLMFQS | area with substrate ENLPFQS | area with substrate ENLQFQS | area with substrate ENLRFQS | area with substrate ENLSFQS | area with substrate ENLCFQS | area with substrate ENLEFQS | area with substrate ENLNFQS | area with substrate ENLVFQS | area with substrate ENLDFQS | area with substrate ENLFFQS | area with substrate ENLHFQS | area with substrate ENLKFQS | area with substrate ENLTFQS | area with substrate ENLLFQS | area with substrate ENLWFQS
MGESLFKGPRDYNPISSSICHLTNESDGHTTSLYGIGFGPFIITNKHLFRRNNGTLVVQSLHGVFKVKDTHTLQQHLVDGRDMIIIRMPKDFPPFPQKLKFREPQREERICLVTTNFQTKSMSSMVSDTSCTFPSGDGIFWKHWIQTKDGQCGSPLVSTRDGFIVGIHSASNFTNTNNYFTSVPKNFMELLTNQEAQQWVSGWRLNADSVLWGGHKVFMVKPEEPFQPVKEATQL [T71H] | 0.0526 | 0.0776 | 0.0806 | 0.0789 | 0.073 | 0.0544 | 0.0671 | 0.0573 |  |  |  |  |  |  |  |  |  |  | 
MGESLFKGPRDYNPISSSICHLTNESDGHTTSLYGIGFGPFIITNKHLFRRNNGTLVVQSLHGVFKVKDTYTLQQHLVDGRDMIIIRMPKDFPPFPQKLKFREPQREERICLVTTNFQTKSMSSMVSDTSCTFPSGDGIFWKHWIQTKDGQCGSPLVSTRDGFIVGIHSASNFTNTNNYFTSVPKNFMELLTNQEAQQWVSGWRLNADSVLWGGHKVFMVKPEEPFQPVKEATQL [T71Y] | 0.0647 |  |  | 0.0709 | 0.0499 |  | 0.0543 |  | 0.0582 | 0.0661 | 0.0632 | 0.053 |  |  |  |  |  |  | 
MGESLFKGPRDYNPISSSICHLTNESDGHTTSLYGIGFGPFIITNKHLFRRNNGTLVVQSLHGVFKVKDTTYLQQHLVDGRDMIIIRMPKDFPPFPQKLKFREPQREERICLVTTNFQTKSMSSMVSDTSCTFPSGDGIFWKHWIQTKDGQCGSPLVSTRDGFIVGIHSASNFTNTNNYFTSVPKNFMELLTNQEAQQWVSGWRLNADSVLWGGHKVFMVKPEEPFQPVKEATQL [T72Y] | 0.0546 |  | 0.0663 |  | 0.0644 |  | 0.0664 | 0.053 | 0.0186 | 0.0572 | 0.0663 |  | 0.0473 | 0.0703 | 0.0265 | 0.0557 | 0.0569 |  | 
MGESLFKGPRDYNPISSSICHLTNESDGHTTSLYGIGFGPFIITNKHLFRRNNGTLVVQSLHGVFKVKDTTTFQQHLVDGRDMIIIRMPKDFPPFPQKLKFREPQREERICLVTTNFQTKSMSSMVSDTSCTFPSGDGIFWKHWIQTKDGQCGSPLVSTRDGFIVGIHSASNFTNTNNYFTSVPKNFMELLTNQEAQQWVSGWRLNADSVLWGGHKVFMVKPEEPFQPVKEATQL [L73F] | 0.0647 |  |  | 0.056 | 0.0563 |  |  | 0.0536 | 0.0663 | 0.0557 | 0.0422 | 0.065 | 0.0633 | 0.0609 | 0.0606 | 0.0664 |  | 0.0567 | 0.0525
MGESLFKGPRDYNPISSSICHLTNESDGHTTSLYGIGFGPFIITNKHLFRRNNGTLVVQSLHGVFKVKDTTTLQQHLMDGRDMIIIRMPKDFPPFPQKLKFREPQREERICLVTTNFQTKSMSSMVSDTSCTFPSGDGIFWKHWIQTKDGQCGSPLVSTRDGFIVGIHSASNFTNTNNYFTSVPKNFMELLTNQEAQQWVSGWRLNADSVLWGGHKVFMVKPEEPFQPVKEATQL [V78M] | 0.0559 |  | 0.0688 | 0.056 | 0.034 | 0.0714 | 0.0683 | 0.0564 | 0.0733 |  | 0.0691 |  | 0.055 | 0.068 | 0.0714 | 0.0796 |  | 0.0703 | 
MGESLFKGPRDYNPISSSICHLTNESDGHTTSLYGIGFGPFIITNKHLFRRNNGTLVVQSLHGVFKVKDTTTLQQHLTDGRDMIIIRMPKDFPPFPQKLKFREPQREERICLVTTNFQTKSMSSMVSDTSCTFPSGDGIFWKHWIQTKDGQCGSPLVSTRDGFIVGIHSASNFTNTNNYFTSVPKNFMELLTNQEAQQWVSGWRLNADSVLWGGHKVFMVKPEEPFQPVKEATQL [V78T] | 0.065 |  |  | 0.0717 |  |  | 0.0627 |  |  | 0.0597 | 0.0636 |  | 0.0506 | 0.0646 |  | 0.0646 |  |  | 0.059
MGESLFKGPRDYNPISSSICHLTNESDGHTTSLYGIGFGPFIITNKHLFRRNNGTLVVQSLHGVFKVKDTTTLQQHLVDFRDMIIIRMPKDFPPFPQKLKFREPQREERICLVTTNFQTKSMSSMVSDTSCTFPSGDGIFWKHWIQTKDGQCGSPLVSTRDGFIVGIHSASNFTNTNNYFTSVPKNFMELLTNQEAQQWVSGWRLNADSVLWGGHKVFMVKPEEPFQPVKEATQL [G80F] | 0.0525 |  | 0.0801 |  | 0.0503 |  |  | 0.0571 |  |  |  |  | 0.0648 | 0.093 | 0.0658 | 0.0684 |  |  | 
MGESLFKGPRDYNPISSSICHLTNESDGHTTSLYGIGFGPFIITNKHLFRRNNGTLVVQSLHGVFKVKDTTTLQQHLVDGREMIIIRMPKDFPPFPQKLKFREPQREERICLVTTNFQTKSMSSMVSDTSCTFPSGDGIFWKHWIQTKDGQCGSPLVSTRDGFIVGIHSASNFTNTNNYFTSVPKNFMELLTNQEAQQWVSGWRLNADSVLWGGHKVFMVKPEEPFQPVKEATQL [D82E] | 0.0613 |  | 0.076 | 0.0632 | 0.0768 |  |  |  | 0.0847 | 0.0673 | 0.0526 |  | 0.0727 | 0.09 | 0.0715 | 0.0641 | 0.0279 | 0.0416 | 0.0551
MGESLFKGPRDYNPISSSICHLTNESDGHTTSLYGIGFGPFIITNKHLFRRNNGTLVVQSLHGVFKVKDTTTLQQHLVDGRDQIIIRMPKDFPPFPQKLKFREPQREERICLVTTNFQTKSMSSMVSDTSCTFPSGDGIFWKHWIQTKDGQCGSPLVSTRDGFIVGIHSASNFTNTNNYFTSVPKNFMELLTNQEAQQWVSGWRLNADSVLWGGHKVFMVKPEEPFQPVKEATQL [M83Q] | 0.0594 |  |  | 0.074 |  | 0.0306 |  | 0.0491 |  |  |  | 0.0036 | 0.0783 | 0.0569 | 0.0569 | 0.0573 | 0.0601 | 0.0749 | 0.0502
